Measured values published in the supplement of paper PMC4967469.
The IC50 comes from the fitted curve, where viability falls to half of the control; a limit (>, <) means that the fit lies beyond the doses tested. AUC is the area under the same curve over the 256-fold range up to the top dose, as a fraction; values near 1 show little effect. For some assays here: An inferred top dose was derived from the fitted curves, not read from the paper.

Legend:
Assay in all cases: Viability of human cancer cell lines after 72 h of drug (GDSC screen)
Tubastatin A = compound: CN1CCc2c(c3ccccc3n2Cc2ccc(C(=O)NO)cc2)C1 [Tubastatin A]; conditions: top dose 20 µM
Method: (§1)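 Human cancer cell lines in 384-well plates, medium with 10% serum, drug for 72 h over a 256-fold dose range (nine 2-fold or five 4-fold steps up to the top dose). Adherent lines were fixed and stained with the nucleic acid dye Syto60, suspension lines read with resazurin; signal relative to control wells, capped at 0 and 100%. One two-parameter sigmoid per drug and line, fitted in a mixed model over all curves with the slope shared within a line.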

XL-880 = compound: COc1cc2c(Oc3ccc(NC(=O)C4(C(=O)Nc5ccc(F)cc5)CC4)cc3F)ccnc2cc1OCCCN1CCOCC1 [XL-880]; conditions: top dose 5.12 µM; top dose inferred
Method: as §1

Temozolomide = compound: Cn1nnc2c(C(N)=O)ncn2c1=O [Temozolomide]; conditions: top dose 30 µM
Method: as §1

CI-1040 = compound: O=C(NOCC1CC1)c1ccc(F)c(F)c1Nc1ccc(I)cc1Cl [CI-1040]; conditions: top dose 10 µM; top dose inferred
Method: as §1

IPA-3 = compound: Oc1ccc2ccccc2c1SSc1c(O)ccc2ccccc12 [IPA-3]; conditions: top dose 32 µM; top dose inferred
Method: as §1

## HOP-92 (large cell lung carcinoma, adherent)
Tubastatin A
  AUC: 0.982
  IC50: > 20 µM
XL-880
  AUC: 0.877
  IC50: > 5.12 µM
Temozolomide
  AUC: 0.967
  IC50: > 30 µM
CI-1040
  AUC: 0.756
  IC50: 3.92 µM
IPA-3
  AUC: 0.901
  IC50: > 32 µM

## HT-1080 (fibrosarcoma, adherent)
Tubastatin A
  AUC: 0.983
  IC50: > 20 µM
XL-880
  AUC: 0.764
  IC50: 1.67 µM
Temozolomide
  AUC: 0.971
  IC50: > 30 µM
CI-1040
  AUC: 0.675
  IC50: 1.81 µM
IPA-3
  AUC: 0.725
  IC50: 8.02 µM

## 42-MG-BA (glioma, adherent)
Tubastatin A
  AUC: 0.968
  IC50: > 20 µM
XL-880
  AUC: 0.588
  IC50: 0.569 µM
Temozolomide
  AUC: 0.957
  IC50: > 30 µM
CI-1040
  AUC: 0.856
  IC50: 8.91 µM
IPA-3
  AUC: 0.985
  IC50: > 32 µM

## COLO-679 (melanoma, adherent)
Tubastatin A
  AUC: 0.981
  IC50: > 20 µM
XL-880
  AUC: 0.947
  IC50: > 5.12 µM
Temozolomide
  AUC: 0.97
  IC50: > 30 µM
CI-1040
  AUC: 0.428
  IC50: 0.387 µM
IPA-3
  AUC: 0.862
  IC50: > 32 µM

## SCC-9 (head and neck, adherent)
Tubastatin A
  AUC: 0.953
  IC50: > 20 µM
XL-880
  AUC: 0.498
  IC50: 0.316 µM
Temozolomide
  AUC: 0.971
  IC50: > 30 µM
CI-1040
  AUC: 0.954
  IC50: > 10 µM
IPA-3
  AUC: 0.981
  IC50: > 32 µM

## OVMIU (ovary, adherent)
Tubastatin A
  AUC: 0.833
  IC50: 17.7 µM
XL-880
  AUC: 0.589
  IC50: 0.595 µM
Temozolomide
  AUC: 0.977
  IC50: > 30 µM
CI-1040
  AUC: 0.678
  IC50: 2.24 µM
IPA-3
  AUC: 0.888
  IC50: > 32 µM

## MIA-PaCa-2 (pancreas, adherent)
Tubastatin A
  AUC: 0.983
  IC50: > 20 µM
XL-880
  AUC: 0.836
  IC50: 3.88 µM
Temozolomide
  AUC: 0.981
  IC50: > 30 µM
CI-1040
  AUC: 0.556
  IC50: 0.906 µM
IPA-3
  AUC: 0.814
  IC50: 19.5 µM

## HCC-44 (lung adenocarcinoma, adherent)
Tubastatin A
  AUC: 0.83
  IC50: 12.2 µM
XL-880
  AUC: 0.562
  IC50: 0.47 µM
Temozolomide
  AUC: 0.985
  IC50: > 30 µM
CI-1040
  AUC: 0.688
  IC50: 2.08 µM
IPA-3
  AUC: 0.786
  IC50: 13.5 µM

## SCC-25 (head and neck, adherent)
Tubastatin A
  AUC: 0.89
  IC50: > 20 µM
XL-880
  AUC: 0.489
  IC50: 0.297 µM
Temozolomide
  AUC: 0.975
  IC50: > 30 µM
CI-1040
  AUC: 0.814
  IC50: 6.35 µM
IPA-3
  AUC: 0.976
  IC50: > 32 µM

## PANC-03-27 (pancreas, adherent)
Tubastatin A
  AUC: 0.968
  IC50: > 20 µM
XL-880
  AUC: 0.534
  IC50: 0.394 µM
Temozolomide
  AUC: 0.987
  IC50: > 30 µM
CI-1040
  AUC: 0.751
  IC50: 3.1 µM
IPA-3
  AUC: 0.946
  IC50: > 32 µM

## EGI-1 (biliary tract, adherent)
Tubastatin A
  AUC: 0.982
  IC50: > 20 µM
XL-880
  AUC: 0.676
  IC50: 1.16 µM
Temozolomide
  AUC: 0.959
  IC50: > 30 µM
CI-1040
  AUC: 0.755
  IC50: 4.34 µM
IPA-3
  AUC: 0.982
  IC50: > 32 µM

## CAL-29 (bladder, adherent)
Tubastatin A
  AUC: 0.982
  IC50: > 20 µM
XL-880
  AUC: 0.72
  IC50: 1.42 µM
Temozolomide
  AUC: 0.957
  IC50: > 30 µM
CI-1040
  AUC: 0.77
  IC50: 4.08 µM
IPA-3
  AUC: 0.876
  IC50: > 32 µM

## UM-UC-3 (bladder, adherent)
Tubastatin A
  AUC: 0.937
  IC50: > 20 µM
XL-880
  AUC: 0.59
  IC50: 0.556 µM
Temozolomide
  AUC: 0.984
  IC50: > 30 µM
CI-1040
  AUC: 0.86
  IC50: 7.58 µM
IPA-3
  AUC: 0.896
  IC50: > 32 µM

## CAL-39 (cervix, adherent)
Tubastatin A
  AUC: 0.97
  IC50: > 20 µM
XL-880
  AUC: 0.594
  IC50: 0.585 µM
Temozolomide
  AUC: 0.983
  IC50: > 30 µM
CI-1040
  AUC: 0.672
  IC50: 1.93 µM
IPA-3
  AUC: 0.863
  IC50: 29.4 µM

## HT-1376 (bladder, adherent)
Tubastatin A
  AUC: 0.985
  IC50: > 20 µM
XL-880
  AUC: 0.985
  IC50: > 5.12 µM
Temozolomide
  AUC: 0.969
  IC50: > 30 µM
CI-1040
  AUC: 0.941
  IC50: > 10 µM
IPA-3
  AUC: 0.978
  IC50: > 32 µM

## HuO-3N1 (osteosarcoma, adherent)
Tubastatin A
  AUC: 0.962
  IC50: > 20 µM
XL-880
  AUC: 0.747
  IC50: 2.11 µM
Temozolomide
  AUC: 0.98
  IC50: > 30 µM
CI-1040
  AUC: 0.977
  IC50: > 10 µM
IPA-3
  AUC: 0.958
  IC50: > 32 µM

## Saos-2 (osteosarcoma, adherent)
Tubastatin A
  AUC: 0.981
  IC50: > 20 µM
XL-880
  AUC: 0.981
  IC50: > 5.12 µM
Temozolomide
  AUC: 0.967
  IC50: > 30 µM
CI-1040
  AUC: 0.928
  IC50: > 10 µM
IPA-3
  AUC: 0.914
  IC50: > 32 µM

## Mewo (melanoma, adherent)
Tubastatin A
  AUC: 0.979
  IC50: > 20 µM
XL-880
  AUC: 0.851
  IC50: > 5.12 µM
Temozolomide
  AUC: 0.972
  IC50: > 30 µM
CI-1040
  AUC: 0.597
  IC50: 1.21 µM
IPA-3
  AUC: 0.961
  IC50: > 32 µM

## BICR78 (head and neck, adherent)
Tubastatin A
  AUC: 0.983
  IC50: > 20 µM
XL-880
  AUC: 0.758
  IC50: 2.04 µM
Temozolomide
  AUC: 0.981
  IC50: > 30 µM
CI-1040
  AUC: 0.578
  IC50: 1.05 µM
IPA-3
  AUC: 0.939
  IC50: > 32 µM

## CCF-STTG1 (glioma, adherent)
Tubastatin A
  AUC: 0.988
  IC50: > 20 µM
XL-880
  AUC: 0.501
  IC50: 0.321 µM
Temozolomide
  AUC: 0.987
  IC50: > 30 µM
CI-1040
  AUC: 0.983
  IC50: > 10 µM
IPA-3
  AUC: 0.977
  IC50: > 32 µM

## SKG-IIIa (cervix, adherent)
Tubastatin A
  AUC: 0.981
  IC50: > 20 µM
XL-880
  AUC: 0.983
  IC50: > 5.12 µM
Temozolomide
  AUC: 0.975
  IC50: > 30 µM
CI-1040
  AUC: 0.941
  IC50: > 10 µM
IPA-3
  AUC: 0.982
  IC50: > 32 µM

## OAW-42 (ovary, adherent)
Tubastatin A
  AUC: 0.962
  IC50: > 20 µM
XL-880
  AUC: 0.683
  IC50: 1.09 µM
Temozolomide
  AUC: 0.955
  IC50: > 30 µM
CI-1040
  AUC: 0.844
  IC50: 8.09 µM
IPA-3
  AUC: 0.951
  IC50: > 32 µM

## NCI-H1048 (small cell lung carcinoma, adherent)
Tubastatin A
  AUC: 0.962
  IC50: > 20 µM
XL-880
  AUC: 0.489
  IC50: 0.3 µM
Temozolomide
  AUC: 0.983
  IC50: > 30 µM
CI-1040
  AUC: 0.874
  IC50: 8.05 µM
IPA-3
  AUC: 0.98
  IC50: > 32 µM

## SK-MEL-24 (melanoma, adherent)
Tubastatin A
  AUC: 0.975
  IC50: > 20 µM
XL-880
  AUC: 0.504
  IC50: 0.329 µM
Temozolomide
  AUC: 0.962
  IC50: > 30 µM
CI-1040
  AUC: 0.714
  IC50: 2.91 µM
IPA-3
  AUC: 0.862
  IC50: > 32 µM

## M14 (melanoma, adherent)
Tubastatin A
  AUC: 0.98
  IC50: > 20 µM
XL-880
  AUC: 0.55
  IC50: 0.442 µM
Temozolomide
  AUC: 0.959
  IC50: > 30 µM
CI-1040
  AUC: 0.341
  IC50: 0.22 µM
IPA-3
  AUC: 0.979
  IC50: > 32 µM

## PC-3 [JPC-3] (lung adenocarcinoma, adherent)
Tubastatin A
  AUC: 0.977
  IC50: > 20 µM
XL-880
  AUC: 0.766
  IC50: 2.51 µM
Temozolomide
  AUC: 0.957
  IC50: > 30 µM
CI-1040
  AUC: 0.895
  IC50: > 10 µM
IPA-3
  AUC: 0.979
  IC50: > 32 µM
